The test concerns NCI-H322M lung. Description: NCI anticancer screen, dose series, 48 h.

Structures are written as SMILES.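 Exposure lasted 48 hours, with cells grown in 96-well plates and compounds tested at five concentrations. GI50 marks 50% less growth. TGI: total growth inhibition.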

`COC(=O)c1c(C(=O)OC)c2ccc3c4ccccc4ccc3n2c1C(=O)C(C)Br` (centres undefined): the GI50 was more than 100 µM and the TGI is more than 100 µM.
For the molecule `C=C1CC[C@@H]2[C@]3(C)COC(c4ccco4)O[C@@H]3CC[C@@]2(C)[C@@H]1C/C=C1/C(=O)OCC1OC(C)=O` (some centres undefined), the GI50 was 25.2 µM and the TGI is more than 100 µM.

The values above are taken from PubChem BioAssay (NCI).
